# Measurements taken from publication PMC8591507, “Progesterone receptor membrane component 1 (PGRMC1) binds and stabilizes cytochromes P450 through a heme-independent mechanism” (The Journal of Biological Chemistry, 2021).
# The chains behind the UniProt entries cited, without tags or fusion partners. Where a name states a change or a piece, a line headed by the entry shows the natural chain unless it says otherwise.
# UniProt O55022: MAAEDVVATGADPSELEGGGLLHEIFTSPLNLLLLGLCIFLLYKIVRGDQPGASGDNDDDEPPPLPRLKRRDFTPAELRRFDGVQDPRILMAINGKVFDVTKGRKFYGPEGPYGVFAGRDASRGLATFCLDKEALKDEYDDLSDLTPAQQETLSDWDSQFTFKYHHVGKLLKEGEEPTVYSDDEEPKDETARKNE
# UniProt O00264: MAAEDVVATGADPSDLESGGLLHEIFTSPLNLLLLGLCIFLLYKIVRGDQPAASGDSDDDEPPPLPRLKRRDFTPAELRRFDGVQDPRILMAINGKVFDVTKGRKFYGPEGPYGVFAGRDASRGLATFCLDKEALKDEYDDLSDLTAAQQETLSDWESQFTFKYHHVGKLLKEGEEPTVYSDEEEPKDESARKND
# UniProt Q05421: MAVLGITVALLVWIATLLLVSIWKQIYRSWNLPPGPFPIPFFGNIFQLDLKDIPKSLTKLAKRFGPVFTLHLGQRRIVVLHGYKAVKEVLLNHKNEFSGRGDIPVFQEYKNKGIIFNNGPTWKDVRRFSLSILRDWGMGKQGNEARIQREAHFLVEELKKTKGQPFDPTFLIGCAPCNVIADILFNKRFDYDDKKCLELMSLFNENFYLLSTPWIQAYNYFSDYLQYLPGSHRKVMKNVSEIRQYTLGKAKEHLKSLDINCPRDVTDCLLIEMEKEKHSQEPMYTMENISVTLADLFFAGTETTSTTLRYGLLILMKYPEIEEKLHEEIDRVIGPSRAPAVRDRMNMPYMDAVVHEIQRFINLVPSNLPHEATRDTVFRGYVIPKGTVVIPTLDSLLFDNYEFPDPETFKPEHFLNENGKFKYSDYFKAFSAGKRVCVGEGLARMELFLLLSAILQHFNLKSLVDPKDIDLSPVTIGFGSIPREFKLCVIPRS
# No constants are given. Whether binding was seen depends on the method and setting. Binding seen in cells or lysates may run through a third protein. Some results given as binding are weak or reduced against the parent protein; the word gives no strength. For some assays here: Where a sequence is shown, tags or fusion partners need not be part of it.
# Legend:
# [1] = target: Y113F Flag-Pgrmc1 (murine) (mouse) (UniProt O55022); test: co-IP; Flag-M2 agarose on DDM-solubilized liver membrane fractions of Pgrmc1 KO mice infected with AAV8 GFP, Flag-Pgrmc1 or Y113F Flag-Pgrmc1; 1 h at 4 °C; input (1x) and bound (20x) fractions western blotted
# [2] = target: Flag-Pgrmc1 (murine progesterone receptor membrane component 1) (mouse) (UniProt O55022); test: as above
# [3] = target: Y113F, K163A, Y164F (3X MUT) Flag-PGRMC1 (human) (human) (UniProt O00264); test: co-IP; Flag-M2 agarose on lysates (1X TAP lysis buffer with DDM) of PGRMC1 KO SV589 cells cotransfected with Flag-PGRMC1 variants and CYP1A2-1XMyc; 1 h at 4 °C; western blot
# [4] = target: Y113F Flag-PGRMC1 (human) (human) (UniProt O00264); test: as above
# [5] = target: Flag-PGRMC1 (human progesterone receptor membrane component 1) (human) (UniProt O00264); test: as above
binding [1],binding [2],binding [3],binding [4],binding [5],Molecule
binds,binds,–,–,–,Cyp2e1 (from UniProt Q05421 1-493) (enzyme)
no binding,binds,–,–,–,"ferrochelatase (Fech) (enzyme, UniProt P22315 54-422) TTKPQAQPERRKPKTGILMLNMGGPETLGEVQDFLQRLFLDRDLMTLPIQNKLAPFIAKRRTPKIQEQYRRIGGGSPIKMWTSKQGEGMVKLLDELSPATAPHKYYIGFRYVHPLTEEAIEEMERDGLERAIAFTQYPQYSCSTTGSSLNAIYRYYNEVGQKPTMKWSTIDRWPTHPLLIQCFADHILKELNHFPEEKRSEVVILFSAHSLPMSVVNRGDPYPQEVGATVHKVMEKLGYPNPYRLVWQSKVGPVPWLGPQTDEAIKGLCERGRKNILLVPIAFTSDHIETLYELDIEYSQVLAQKCGAENIRRAESLNGNPLFSKALADLVHSHIQSNKLCSTQLSLNCPLCVNPVCRKTKSFFTSQQL"
binds,binds,–,–,–,"Cyp1a2 (enzyme, UniProt P00186 1-513) MAFSQYISLAPELLLATAIFCLVFWMVRASRTQVPKGLKNPPGPWGLPFIGHMLTVGKNPHLSLTRLSQQYGDVLQIRIGSTPVVVLSGLNTIKQALVRQGDDFKGRPDLYSFTLITNGKSMTFNPDSGPVWAARRRLAQDALKSFSIASDPTSASSCYLEEHVSKEANHLVSKLQKAMAEVGHFEPVSQVVESVANVIGAMCFGKNFPRKSEEMLNIVNNSKDFVENVTSGNAVDFFPVLRYLPNPALKRFKTFNDNFVLFLQKTVQEHYQDFNKNSIQDITSALFKHSENYKDNGGLIPEEKIVNIVNDIFGAGFDTVTTAITWSILLLVTWPNVQRKIHEELDTVVGRDRQPRLSDRPQLPYLEAFILEIYRYTSFVPFTIPHSTTRDTSLNGFHIPKERCIYINQWQVNHDEKQWKDPFVFRPERFLTNNNSAIDKTQSEKVMLFGLGKRRCIGEIPAKWEVFLFLAILLQHLEFSVPPGVKVDLTPNYGLTMKPGTCEHVQAWPRFSK"
–,–,binds,binds,binds,"CYP1A2-1XMyc (human cytochrome P450 1A2) (enzyme, UniProt P05177 1-516) MALSQSVPFSATELLLASAIFCLVFWVLKGLRPRVPKGLKSPPEPWGWPLLGHVLTLGKNPHLALSRMSQRYGDVLQIRIGSTPVLVLSRLDTIRQALVRQGDDFKGRPDLYTSTLITDGQSLTFSTDSGPVWAARRRLAQNALNTFSIASDPASSSSCYLEEHVSKEAKALISRLQELMAGPGHFDPYNQVVVSVANVIGAMCFGQHFPESSDEMLSLVKNTHEFVETASSGNPLDFFPILRYLPNPALQRFKAFNQRFLWFLQKTVQEHYQDFDKNSVRDITGALFKHSKKGPRASGNLIPQEKIVNLVNDIFGAGFDTVTTAISWSLMYLVTKPEIQRKIQKELDTVIGRERRPRLSDRPQLPYLEAFILETFRHSPFLPFTIPHSTTRDTTLNGFYIPKKCCVFVNQWQVNHDPELWEDPSEFRPERFLTADGTAINKPLSEKMMLFGMGKRRCIGEVLAKWEIFLFLAILLQQLEFSVPPGVKVDLTPIYGLTMKHARCEHVQARLRFSIN"
binds,binds,–,–,–,"Cyp51a (enzyme, UniProt Q8K0C4 1-503) MVLLGLLQSGGWVLGQAMEQVTGGNLLSTLLIACAFTLSLVYLFRLAVGHMVQLPAGAKSPPHIYSPIPFLGHAIAFGKSPIEFLENAYEKYGPVFSFTMVGKTFTYLLGSDAAALLFNSKNEDLNAEEVYGRLTTPVFGKGVAYDVPNAIFLEQKKIIKSGLNIAHFKQYVPIIEKEAKEYFQSWGESGERNVFEALSELIILTASHCLHGKEIRSQLNEKVAQLYADLDGGFTHAAWLLPAWLPLPSFRRRDRAHREIKNIFYKAIQKRRLSKEPAEDILQTLLDSTYKDGRPLTDEEISGMLIGLLLAGQHTSSTTSAWMGFFLAKDKPLQEKCYLEQKAVCGEDLPPLTYDQLKDLNLLDRCIKETLRLRPPIMTMMRMAKTPQTVAGYTIPPGHQVCVSPTVNQRLKDSWAERLDFNPDRYLQDNPASGEKFAYVPFGAGRHRCVGENFAYVQIKTIWSTMLRLYEFDLINGYFPTVNYTTMIHTPENPVIRYKRRSK"
